Experiment [1] concerns the target T1, human CD39 on the cell surface (human, UniProt P49961 1-510).
T1 construct: whole, on cells; also called hCD39; NTPDase 1
T1 sequence (looked up): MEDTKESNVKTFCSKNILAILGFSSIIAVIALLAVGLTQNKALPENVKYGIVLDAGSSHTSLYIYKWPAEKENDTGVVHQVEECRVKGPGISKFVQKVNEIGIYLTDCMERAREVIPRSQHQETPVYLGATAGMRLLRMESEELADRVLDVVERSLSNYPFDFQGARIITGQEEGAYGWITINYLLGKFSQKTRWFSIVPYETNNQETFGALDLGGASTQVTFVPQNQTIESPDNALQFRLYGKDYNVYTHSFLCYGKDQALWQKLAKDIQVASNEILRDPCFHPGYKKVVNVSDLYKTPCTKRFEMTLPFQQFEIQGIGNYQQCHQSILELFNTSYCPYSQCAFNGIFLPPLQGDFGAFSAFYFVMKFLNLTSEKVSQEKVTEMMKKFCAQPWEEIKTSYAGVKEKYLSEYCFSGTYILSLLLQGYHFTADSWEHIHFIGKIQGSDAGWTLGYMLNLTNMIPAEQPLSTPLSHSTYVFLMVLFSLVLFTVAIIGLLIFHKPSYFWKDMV
Briefly: FACS on SK-MEL-28 cells (natural human CD39).

The target in experiment [2] is T1, human CD39 on the cell surface. The experiment is described as follows: cell-based or functional assay.

Residue numbers refer to the chain shown, from its start. Names may count otherwise.

As a reminder, the EC50 is the concentration at which the effect is half-maximal.

B1: humanized antibody F03-9 (antibody, human IgG4 S228P, kappa)
heavy: QVQLVQSGAEVKKPGASVKVSCKASGYTFTNYWMYWVRQRPGRGLEWIGRIAPSSGATKYNEKFKNRATLTVDTSISTAYMELSRLRSDDTAVYYCARSGIYYDYDWFFDVWGQGTTVTVSSASTKGPSVFPLAPCSRSTSESTAALGCLVKDYFPEPVTVSWNSGALTSGVHTFPAVLQSSGLYSLSSVVTVPSSSLGTKTYTCNVDHKPSNTKVDKRV[human IgG4 Fc with S228P (EU numbers) omitted here]
light: DIQMTQSPSSLSASVGDRVTITCKASQDINKYIGWYQQKPGKAPKLLIHYTSTLQPGVPSRFSGSGSGTDFTFTISSLQPEDIATYYCLQYHALLFTFGQGTKLEIKRTVAAPSVFIFPPSDEQLKSGTASVVCLLNNFYPREAKVQWKVDNALQSGNSQESVTEQDSKDSTYSLSSTLTLSKADYEKHKVYACEVTHQGLSSPVTKSFNRGEC
notes: Human IgG4 (S228P) and human kappa constant regions
In experiment [1], B1 had an EC50 of 1.01 nM. Also, in experiment [2], the “Enzymatic activity inhibition (EC50 nM)” value worked out at 0.04 nM.

B2: humanized antibody F03-10 (antibody, human IgG4 S228P, kappa)
heavy: B1 heavy with W112S
light: B1 light
notes: as for B1
The molecule B2 returned an EC50 in experiment [1] of 1.48 nM. In addition, the “Enzymatic activity inhibition (EC50 nM)” value in experiment [2] was determined as 0.02 nM.

For the origin of these results see patent publication US20250011455A1 (HANGZHOU BANGSHUN PHARMACEUTICAL, published 2025).
